Results as given in patent publication US20250270341A1 (Alector, published 2025).

How the values were obtained:
huCD98hc ECD Avi-His = target: T1, huCD98hc ECD Avi-His (human, UniProt P08195 105-529); assay: SPR, Carterra LSA, antibody immobilized
T1 construct: biotinylated on the Avi tag where captured on streptavidin; also called Human CD98-AVI-His; Human CD98hc-AVI-His
T1 sequence: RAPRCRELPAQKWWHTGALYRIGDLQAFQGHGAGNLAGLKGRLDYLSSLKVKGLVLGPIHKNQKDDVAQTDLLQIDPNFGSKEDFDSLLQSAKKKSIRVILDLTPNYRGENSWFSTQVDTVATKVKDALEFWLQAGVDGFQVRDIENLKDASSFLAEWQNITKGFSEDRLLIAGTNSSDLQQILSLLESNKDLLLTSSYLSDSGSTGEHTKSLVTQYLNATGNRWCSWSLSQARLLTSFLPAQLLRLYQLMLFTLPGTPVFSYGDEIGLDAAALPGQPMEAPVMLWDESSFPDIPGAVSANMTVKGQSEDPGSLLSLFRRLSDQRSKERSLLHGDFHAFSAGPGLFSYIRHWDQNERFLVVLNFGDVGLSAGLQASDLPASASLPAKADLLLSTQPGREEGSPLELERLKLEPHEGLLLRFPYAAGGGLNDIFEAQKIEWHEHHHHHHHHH

Cyno CD98hc ECD Avi-His = target: T2, Cyno CD98hc ECD Avi-His (cynomolgus macaque, UniProt P08195 105-529 (human entry)); assay: SPR, Carterra LSA, antibody immobilized
T2 construct: biotinylated on the Avi tag where captured on streptavidin; also called Cyno CD98-AVI-His; Cyno CD98hc-AVI-His
T2 chain: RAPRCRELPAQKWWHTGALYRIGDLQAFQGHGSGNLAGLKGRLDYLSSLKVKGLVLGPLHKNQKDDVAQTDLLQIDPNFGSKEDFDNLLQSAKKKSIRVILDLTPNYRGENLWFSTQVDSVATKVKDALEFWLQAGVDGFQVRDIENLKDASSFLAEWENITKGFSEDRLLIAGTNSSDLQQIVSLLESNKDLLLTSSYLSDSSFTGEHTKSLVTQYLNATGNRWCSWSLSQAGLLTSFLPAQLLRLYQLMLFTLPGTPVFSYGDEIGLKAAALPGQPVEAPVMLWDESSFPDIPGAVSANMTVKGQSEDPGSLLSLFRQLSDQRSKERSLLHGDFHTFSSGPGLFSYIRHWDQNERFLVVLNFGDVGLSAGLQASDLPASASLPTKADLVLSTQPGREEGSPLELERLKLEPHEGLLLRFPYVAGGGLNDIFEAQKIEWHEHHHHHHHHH

Kd (huCD98hc ECD Avi-His): 21 nM | Kd (Cyno CD98hc ECD Avi-His): 5.2 nM
B1: CD98hc.04.010 (2+1 bispecific antibody) (bispecific antibody)
heavy 1: EVRLLESGGGLVQPGGSLRLSCAASGFTFSNYAMGWVRQAPGKGLEWVSAISGSGGSTYYADSVKGRFTTSRDDSKNALYLQMNSLRAEDTAVYYCARGGPGWYAADVWGQGTTVTVSSASTKGPSVFPLAPSSKSTSGGTAALGCLVKDYFPEPVTVSWNSGALTSGVHTFPAVLQSSGLYSLSSVVTVPSSSLGTQTYICNVNHKPSNTKVDKKV[here human IgG1 Fc with changes without letters]GGGGSGGGGSGGGGSQVQLQQSGAELMKPGASVKISCKATGYTFSTYWIEWVKQRPGHGLEWIGEILPGSGTTTYNEKFKGKATFTADTSSNTAYMQLSSLTSEDSAVYYCARRTVYYRYEGIDYWGQGTTLTVSSGGSEGKSSGSGSESKSTGGSQIVLTQSPAIMSASPGEKVTITCSASSSVSYMFWFQQRPGTSPKLWIYTTSNLASGVPARFSGSGSGTSYSLTISRMEAEDAATYYCQQKNNYPFTFGSGTKLEIK
heavy 2: EVRLLESGGGLVQPGGSLRLSCAASGFTFSNYAMGWVRQAPGKGLEWVSAISGSGGSTYYADSVKGRFTTSRDDSKNALYLQMNSLRAEDTAVYYCARGGPGWYAADVWGQGTTVTVSS[here human IgG1 constant region with changes without letters]
light: DIQMTQSPSSLSASVGDRVTITCRASQSISSYLNWYQQKPGKAPKLLIYAASSLQSGVPSRFSGSGSGTDFTLTISSLQPEDFATYYCQQADLPAFAFGGGTKVEIKRTVAAPSVFIFPPSDEQLKSGTASVVCLLNNFYPREAKVQWKVDNALQSGNSQESVTEQDSKDSTYSLSSTLTLSKADYEKHKVYACEVTHQGLSSPVTKSFNRGEC

Kd (huCD98hc ECD Avi-His): 17 nM | Kd (Cyno CD98hc ECD Avi-His): 140 nM
B2: CD98hc.04.012 (2+1 bispecific antibody) (bispecific antibody)
heavy 1: EVRLLESGGGLVQPGGSLRLSCAASGFTFSNYAMGWVRQAPGKGLEWVSAISGSGGSTYYADSVKGRFTTSRDDSKNALYLQMNSLRAEDTAVYYCARGGPGWYAADVWGQGTTVTVSSASTKGPSVFPLAPSSKSTSGGTAALGCLVKDYFPEPVTVSWNSGALTSGVHTFPAVLQSSGLYSLSSVVTVPSSSLGTQTYICNVNHKPSNTKVDKKV[here human IgG1 Fc with changes without letters]GGGGSGGGGSGGGGSQVQLQQSGADLVRPGDSVKISCKGSGYTFTDNTLHWVKQSHAKSLEWIGVISPYYGDASYNQKFKGKATMTVDKSSSTAYMELARLTSEDSAIYYCARVGGRLRLGYYFDHWGQGTTLTVSSGGSEGKSSGSGSESKSTGGSNIMMTQSPSSLAVSAGEKVTMNCKSSQSVLSSSNQKNYLAWYQQKPGQSPKLLIYWASTRESGVPARFTGSGSGTDFSLTITSVQAEDLAVYYCLQYLSSYTFGGGTKLEIK
heavy 2: EVRLLESGGGLVQPGGSLRLSCAASGFTFSNYAMGWVRQAPGKGLEWVSAISGSGGSTYYADSVKGRFTTSRDDSKNALYLQMNSLRAEDTAVYYCARGGPGWYAADVWGQGTTVTVSS[here human IgG1 constant region with changes without letters]
light: B1 light

Kd (huCD98hc ECD Avi-His): 32 nM | Kd (Cyno CD98hc ECD Avi-His): 76 nM
B3: CD98hc.04.013 (2+1 bispecific antibody) (bispecific antibody)
heavy 1: EVRLLESGGGLVQPGGSLRLSCAASGFTFSNYAMGWVRQAPGKGLEWVSAISGSGGSTYYADSVKGRFTTSRDDSKNALYLQMNSLRAEDTAVYYCARGGPGWYAADVWGQGTTVTVSSASTKGPSVFPLAPSSKSTSGGTAALGCLVKDYFPEPVTVSWNSGALTSGVHTFPAVLQSSGLYSLSSVVTVPSSSLGTQTYICNVNHKPSNTKVDKKV[here human IgG1 Fc with changes without letters]GGGGSGGGGSGGGGSEVQLVESGGDLGMPGGSLKLSCAASGFALSGYDMSWVRQTPDKRLEWVAYLSSGGGSTYYPYTVKGRFTISRDNAQNTLYLQMSSLKSEDTAIYYCARHSEVRPWFGYWGQGTLVTVSAGGSEGKSSGSGSESKSTGGSDIVMSQSPSSLAVSVGEKVTLTCKSSQSLLYSGNQKNYLAWYQQNPGQSPKLLIYWASTRESGVPDRFTGSGSGTDFTLTISSVKAEDLAVYYCQQYYTYPPTFGAGTKLGLK
heavy 2: EVRLLESGGGLVQPGGSLRLSCAASGFTFSNYAMGWVRQAPGKGLEWVSAISGSGGSTYYADSVKGRFTTSRDDSKNALYLQMNSLRAEDTAVYYCARGGPGWYAADVWGQGTTVTVSS[here human IgG1 constant region with changes without letters]
light: B1 light

Each block holds one binder with its values, some of them ahead of it.
